# Assay results from PubChem BioAssay AID686971 (National Center for Advancing Translational Sciences (NCATS), 2013).
# The whole screen tested about 360,000 compounds, of which about 7,500 (2.1%) were called active. Inconclusive means that the source gave no clear call. Such entries were picked first, then a sample of the others. The call rests on the fitted dose curve; in most records, active means well fitted cell-killing curve with a large enough effect; inconclusive means small, poorly fitted or top-dose-only effect, or effect the other way, or another doubt; inactive means no such curve, though single readings can be large or run the other way. No potency is given beside an inconclusive call; the fits are too rough.
# Assay: qHTS for induction of synthetic lethality in tumor cells producing 2HG: qHTS for the HT-1080-IDH1KD cell line;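 on activity, negative = toxicity: 0% = DMSO wells and -100% = cell-free medium wells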
# Details: HT-1080 IDH1 knockdown viability, ATP luminescence, 48 h; activity, negative = toxicity: at 46.1 µM (top of the series) unless noted
# Outline: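 Viability of IDH1-knockdown HT-1080 fibrosarcoma cells was assessed by CellTiter-Glo after 48 h at 37 °C with titrated compound; concentration-effect curves were classified by fit quality and response size.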
# Potency means the concentration at half of the fitted maximal effect; tags describe the fitted curve by direction and shape.
Compound,Potency,"activity, negative = toxicity"
Cc1sc2ncnc(N3CCN(S(=O)(=O)c4ccc(Br)cc4)CC3)c2c1C,inactive,–
Cc1cc2nc(CS(=O)(=O)c3ccccc3)cc(=O)n2[nH]1,"inconclusive [rising, single point]",–
CCCNC(=O)c1ccccc1NC(=O)c1ccc2c(c1)NC(=O)C(C)S2 (stereo unspecified),active: 9.2 µM,–
CC(=O)C1=C(C)OC(N)=C(C#N)C1c1cc([N+](=O)[O-])ccc1Cl (stereo unspecified),"inconclusive [cytotoxic, single point]",–
CCN(CC)C(=O)C1=C(C)N(CCC2=CCCCC2)C(=O)C(CC(=O)NCCCCc2ccccc2)C1 (stereo unspecified),inactive,–
Cc1cc(C)nc(/N=C(\N)Nc2ccc(C(C)C)cc2)n1,"inconclusive [cytotoxic, single point]",–
O=C(CSc1nnc(-c2ccccc2)o1)Nc1ccccc1F,"inconclusive [cytotoxic, full curve, poor fit]",–
Cc1cc(/C=N/NC(N)=S)c(C)n1-c1ccc(Br)cc1,"inconclusive [cytotoxic, partial curve]",–
CC[C@@H]1C=C(C(=O)O)[C@H](c2ccc(Cl)cc2)N1S(=O)(=O)c1ccc(C)cc1,inactive,–
Cc1ccc(-n2ncc(C(=O)Nc3cc(Cl)cc(Cl)c3)c2C2CCNCC2)cc1C,active: 20.6 µM,–
CC1CN(C(=O)c2ccc(S(=O)(=O)Nc3cccc(C(F)(F)F)c3)cc2)CC(C)O1 (stereo unspecified),inactive,–
Cc1nc(Sc2ccc(Cl)cc2)c(C#N)c(C)c1[N+](=O)[O-],"inconclusive [cytotoxic, single point]",–
CC1=C(C(=O)N(C(C)C)C(C)C)CC(CC(=O)NCC2CCCCC2)C(=O)N1Cc1ccc(C(C)(C)C)cc1 (stereo unspecified),active: 23.5 µM,–
N#Cc1c(N2CCN(C(=O)c3ccccc3Cl)CC2)nc(-c2ccccc2)c2c1CCCC2,inactive,–
CCOC(=O)c1ccc(Nc2nc(-c3cccnc3)nc3ccccc23)cc1,"inconclusive [cytotoxic, single point]",–
CCn1c(C(=O)NCc2cccnc2)cc2sc(Cl)cc21,"inconclusive [cytotoxic, single point]",–
C#CCNC(=O)C1=C[C@@H](c2ccc(C#C)cc2)[C@H](CCCO)[C@@H](OCC)O1,inactive,–
Cc1c(Cl)cccc1NC(=S)NNS(=O)(=O)c1ccc([N+](=O)[O-])cc1,inactive,–
CCNc1nc(NC(C)C)nc(Oc2ccc(OCCOc3ccccc3)nn2)n1,"inconclusive [cytotoxic, single point]",–
CCc1ccc(CCC(=O)Nc2ccc(Cl)cc2)o1,"inconclusive [cytotoxic, single point]",–
N#Cc1c(-c2cccs2)cc(C2CC2)nc1SCC(N)=O,"inconclusive [cytotoxic, single point]",–
O=[N+]([O-])c1ccc(O)c(/C=N/Nc2ccc(Cl)nn2)c1,active: 0.206 µM,–
Nc1c(C(=O)Nc2ccccc2F)sc2nc(-c3ccco3)ccc12,"inconclusive [cytotoxic, single point]",–
NNC(=O)CN1C(c2ccc(Br)cc2)=Nc2ccc(Br)cc2C1c1ccccc1 (stereo unspecified),"inconclusive [cytotoxic, single point]",–

Compound,Potency,"activity, negative = toxicity"
c1ccc(C(c2c[nH]c3ccccc23)c2c[nH]c3ccccc23)nc1,"inconclusive [cytotoxic, partial curve]",–
CCCNC(=O)c1ccccc1NC(=O)c1ccccc1N(C)S(=O)(=O)c1ccc(C)cc1,"inconclusive [cytotoxic, single point]",–
Cc1cc(OCC(=O)NCCCN2CCOCC2)c2c(C)cc(=O)oc2c1,inactive,–
NN=C1c2ccccc2C(=O)C1C(=O)C(c1ccccc1)c1ccccc1 (stereo unspecified),inactive,–
CCOC(=O)C1=CCN(S(=O)(=O)c2ccc(C)cc2)C1c1ccc(Cl)c(Cl)c1 (stereo unspecified),–,inconclusive: -30.8% [cytotoxic]
Cc1ccc(/C=C2\SC(=O)N(CCNC(=O)C3CSC4(C)CCC(=O)N34)C2=O)cc1 (stereo unspecified),inactive,–
CCOc1ccccc1NC(=O)c1ccc(S(=O)(=O)N(C)C)cc1,inactive,–
CSc1cccc(NC(=O)C2CC(=O)N(c3ccc4c(c3)OCCO4)C2)c1 (stereo unspecified),inactive,–
Nc1c(C(=O)Nc2ccccc2)c2nc3ccccc3nc2n1CCCN1CCOCC1,active: 18.4 µM,–
CO/N=C/c1ccc(N2CCN(C(=O)c3ccc(Cl)cc3Cl)CC2)c([N+](=O)[O-])c1,"inconclusive [cytotoxic, partial curve]",–
O=c1[nH]c2ccc(Br)cc2c(-c2ccccc2)c1CN1CCOCC1,inactive,–
O=C(c1nn2c(C(F)(F)F)cc(-c3ccccc3)nc2c1Cl)N1CCN2CCCC2C1 (stereo unspecified),inactive,–
COc1ccc2[nH]cc(CCNC(=O)c3ccccc3Cl)c2c1,inactive,–
Cc1oc2cc(O)cc(C)c2c(=O)c1-c1cnn(-c2ccccc2)c1,"inconclusive [cytotoxic, single point]",–
O=C(Nc1cccc2cccnc12)c1ccc(Br)o1,"inconclusive [cytotoxic, single point]",–
CC(C)C(N)c1csc(NC(=O)Nc2ccc(OC(F)(F)F)cc2)n1 (stereo unspecified),active: 20.6 µM,–
O=C(Nc1ccc(-c2cn3ccsc3n2)cc1)C1CCCC1,"inconclusive [cytotoxic, single point]",–
CC(=O)C1(C)C(=O)N(c2ccc(F)cc2)C(=O)N1c1ccc(F)cc1 (stereo unspecified),"inconclusive [rising, partial curve, poor fit]",–
COc1ccc(-c2nnc(N3CCCCC3)c3ccccc23)cc1,inactive,–
CC(C)c1ccc(NC(=O)CSc2ncccc2C(=O)Oc2cccc([N+](=O)[O-])c2)cc1,"inconclusive [cytotoxic, single point]",–
CCCCN(c1nc2ccccc2nc1Cl)S(=O)(=O)c1ccc(C)cc1,"inconclusive [cytotoxic, partial curve]",–
CSCCC(c1nc2ccccc2[nH]1)n1c(=O)c(-c2cc3ccccc3[nH]2)nc2ccccc21 (stereo unspecified),"inconclusive [cytotoxic, single point]",–
Cc1cc(C)n(-c2nc3ccccc3c(=O)n2OCC#N)n1,"inconclusive [cytotoxic, full curve]",–
N#Cc1c2c(c(Nc3ccccc3)n3c1nc1ccccc13)CCC2,"inconclusive [cytotoxic, partial curve]",–

Compound,Potency,"activity, negative = toxicity"
COc1ccc(/C=C/C(=O)NC2CCCCCCC2)cc1S(=O)(=O)N1CCOCC1,"inconclusive [cytotoxic, single point]",–
Cc1ccc(/C=N/NC(=O)C2=NNC(c3ccccc3)(c3ccccc3)C2)c(O)c1,"inconclusive [cytotoxic, full curve]",–
CC12CN3CC(C)(CN(C1)C3c1ccc3c(c1)OCO3)C2=O (stereo unspecified),inactive,–
CCN(CC)C(=O)c1cnn(-c2ccccc2)c1NC(=O)c1cccs1,inactive,–
COC(=O)c1c(C)n(-c2ccc(C)cc2)c2ccc(O)cc12,active: 20 µM,–
Cc1cccc(C)c1Nc1nnc(SCc2cc([N+](=O)[O-])cc3c2OCOC3)s1,"inconclusive [cytotoxic, single point]",–
NS(=O)(=O)c1ccc(-c2ccc(/C=N/Nc3ccc(C(=O)O)cc3)o2)cc1,inactive,–
COc1ccc(CCN2C(=O)COc3ccccc3C2C(=O)NC(C)(C)C)cc1OC (stereo unspecified),inactive,–
Clc1ccccc1C(c1ccccc1)(c1ccccc1)n1ccnc1,"inconclusive [cytotoxic, single point]",–
COc1cc(CC(=O)Nc2cccc(S(=O)(=O)N(C)c3ccccc3)c2)cc(OC)c1OC,"inconclusive [cytotoxic, single point]",–
O=C(NC(=S)Nc1cccc2c(O)cccc12)c1cccc(Br)c1,"inconclusive [cytotoxic, single point]",–
CCCCCCCCN1C(=O)[C@H](CC(=O)NCc2ccc(C)o2)C[C@@]2(C(=O)OCC)CCC=C12,"inconclusive [cytotoxic, single point]",–
N#CC1=C(N)NC(SCC(=O)c2ccc(Cl)cc2)=C(C#N)C12CCCC2,"inconclusive [cytotoxic, single point]",–
COc1c(/C=N/Nc2ccc([N+](=O)[O-])cc2[N+](=O)[O-])c(C)nn1-c1ccccc1,inactive,–
CCOC(=O)c1c(NC(=O)CN(CC)CC)sc2c1CCN(C(=O)OCC)C2,"inconclusive [cytotoxic, single point]",–
O=S(=O)(c1cc(F)ccc1F)N1CCN(c2ncnc3ccccc23)CC1,"inconclusive [cytotoxic, full curve]",–
COc1cc(C(=O)NCc2ccc3c(c2)OCO3)c([N+](=O)[O-])cc1OC,inactive,–
CCOC(=O)c1ccc(NC(=O)Nc2nncs2)cc1,active: 0.92 µM,–
O=[N+]([O-])c1cc(C(F)(F)F)ccc1NCCNC(=S)Nc1ccc(Cl)cc1,"inconclusive [cytotoxic, single point]",–
COc1ccc([N+](=O)[O-])c(OC)c1C(=O)NC(=O)Nc1c(F)cc(F)cc1F,inactive,–
C[n+]1c(/C=C/c2ccc(O)cc2)ccc2ccccc21,inactive,–
COc1cc(-c2cnc3c(NC(C)=O)cc(-c4ccccc4CN(C)C)cn23)cc(OC)c1OC,"inconclusive [cytotoxic, full curve]",–
CCN(CC)S(=O)(=O)c1ccc(OC)c(NC(=O)COc2ccc3c(C)cc(=O)oc3c2)c1,inactive,–
